Source: PubChem BioAssay AID1347417 (National Center for Advancing Translational Sciences (NCATS), 2020)
About 5,300 (4.4%) of roughly 120,000 compounds were called active. The shares of active, inactive and inconclusive entries below differ from those in the screen. The call rests on the fitted dose curve; in most records, active means well fitted inhibition curve with a large enough effect; inconclusive means small, poorly fitted or top-dose-only effect; inactive means no such curve, though single readings can be large or run the other way. Potencies beside an inconclusive call are fits to weak or partial responses and may not hold up.

assay: qHTS Primary assay for Inhibitors of Plasmodium falciparum Dd2 growth in vitro; further: nearly all actives have a fitted effect of over 65% in size;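 on activity, negative = inhibition: plate controls were DMSO vehicle for no effect and reference drug for full effect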; conditions: P. falciparum Dd2 growth, SYBR Green, 72 h; activity, negative = inhibition: at 28.9 µM (top of the series) unless noted; series mostly up to 28.9 µM
Outline: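 Infected erythrocytes (Dd2, 0.3% parasitemia, 2.5% hematocrit final) are added to compound in RPMI-1640/Albumax II medium, grown 72 h at 37C in low oxygen, then lysed with saponin/Triton-X containing SYBR Green and read by fluorescence.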
Potency means the concentration at half of the fitted maximal effect; tags describe the fitted curve by direction and shape.

| Compound | Potency | activity, negative = inhibition | outcome |
| --- | --- | --- | --- |
| CC#CCN1C(=O)NC(CCc2ccccc2)(C2CCN(Cc3ccccc3-c3ccco3)CC2)C1=O (centres undefined) | inconclusive: 8.91 µM [inhibitor, partial curve, poor fit] | – | – |
| CCOC(=O)c1sc2ccccc2c1S(=O)(=O)N1CCN(c2cc(C)ccc2C)CC1 | inconclusive: 17.8 µM [inhibitor, single point] | – | – |
| CN1C(=O)Cc2ccccc2C1C(=O)NC1CCCC1 (centres undefined) | inactive | – | – |
| O=C(O)C1CCc2sc(C(=O)N3CCCCCC3)cc2C1 (centres undefined) | inactive | – | – |
| CCCS(=O)(=O)N1CCC(C(=O)N2CCCCCCNC(=O)CC2)CC1 | inactive | – | – |
| COc1ccccc1N1CCN(CC[C@H]2CN(C(=O)Nc3ccc(C(F)(F)F)cc3)CC[C@H]2CC(=O)O)CC1 | inconclusive: 17.8 µM [inhibitor, single point] | – | – |
| Cc1ccc(Cl)cc1NC(=O)N(Cc1ccc2c(c1)OCO2)C1CCN(Cc2ccccc2)CC1 | inconclusive: 10 µM [inhibitor, single point] | – | – |
| CC1=C(C(=O)OCc2ccc(C)cc2)C(c2cccc(F)c2F)CC(=O)N1 (centres undefined) | inconclusive: 17.8 µM [inhibitor, single point] | – | – |
| COCCn1c(C)cnc1C1CCN(S(=O)(=O)c2ccc(C#N)cc2)C1 (centres undefined) | inconclusive: 3.16 µM [inhibitor, partial curve] | – | – |
| CN1[C@@H](CCC(=O)N2CCN(c3ccccc3)CC2)CNC(=O)[C@@H]2[C@H]1CCN2Cc1cccc(Cl)c1 | inactive | – | – |
| COCCCNC(=O)c1ccc2c(c1)CC(=O)N2Cc1ccccc1 | inconclusive: 0.251 µM [inhibitor, full curve, poor fit] | – | – |
| Cc1ccc2nc(Cl)c3cc(C(=O)NCCCN(C)Cc4ccccc4)sc3c2c1 | active: 7.94 µM | – | – |
| COCCN1CCCCCC(O)c2cc(C(=O)N3CCN(c4ccc(F)cc4)CC3)ccc21 (centres undefined) | inconclusive: 1.12 µM [inhibitor, partial curve] | – | – |
| CC1=C[C@@H](CN)[C@H](C(C)C)C[C@H]1Cc1nc2ccc(F)cc2[nH]1 | inconclusive: 15.8 µM [inhibitor, single point] | – | – |
| O=C(NCc1ccccc1)NC[C@H]1Cn2c(-c3ccc4c(c3)OCO4)cnc2CO1 | inconclusive: 31.6 µM [inhibitor, single point] | – | – |
| COC(=O)CNC(=O)C1CN(c2ccc(F)cc2)C(=O)N1 (centres undefined) | inactive | – | – |
| Cc1ccccc1NC(=O)Cn1nnc(C(=O)NCCc2ccccc2)c1N | inactive | – | – |
| COc1cccc(C(=O)NC2CCCN(c3cc(-c4ccc(F)cc4)[nH]n3)C2)c1 (centres undefined) | inconclusive: 1.26 µM [inhibitor, partial curve, poor fit] | – | – |
| COc1ccc(-c2ccc3ncc(Nc4cccc(C(F)(F)F)c4)n3n2)cn1 | inconclusive: 0.282 µM [inhibitor, full curve, poor fit] | – | – |
| O=C(NC1CCCCC1)c1ccc(CSc2nc3ccncc3n2Cc2ccc(F)cc2)cc1 | inconclusive: 15.8 µM [inhibitor, single point] | – | – |
| CCCS(=O)(=O)N1CCC2(CCCN(Cc3cccc(F)c3F)C2=O)C1 (centres undefined) | inactive | – | – |
| O=S(=O)(c1ccc2c(c1)OCCO2)N1CCC(Cc2nc(-c3cccnc3)n[nH]2)C1 (centres undefined) | inconclusive: 1.12 µM [inhibitor, partial curve, poor fit] | – | – |

| Compound | Potency | activity, negative = inhibition | outcome |
| --- | --- | --- | --- |
| COc1ccccc1CNc1nc2c(S(=O)(=O)c3ccccc3)nnn2c2ccc(Cl)cc12 | inconclusive: 3.98 µM [inhibitor, single point] | – | – |
| Cc1cc(OCC(=O)O)c(C)c2c1CC[C@@H]([C@H](C)C(=O)NCc1ccccc1)C2 | inconclusive: 12.6 µM [inhibitor, single point] | – | – |
| Cc1ccc(NC(=O)c2c(NC(=O)c3ccccc3Cl)sc3c2CCC3)cc1 | inconclusive: 17.8 µM [inhibitor, single point] | – | – |
| CC(C)NC(=O)N[C@H]1CCN2C(=O)c3cc(-c4ccsc4)ccc3NC(=O)[C@@H]2C1 | active: 12.6 µM | – | – |
| CN1CCN(C(=O)Cn2ncc3c4ccccc4n(Cc4ccc(Cl)cc4)c3c2=O)CC1 | inconclusive: 8.91 µM [inhibitor, partial curve, poor fit] | – | – |
| Cc1cc(C)c(NC(=O)c2c(C)nn(-c3ccc(F)cc3)c2-n2cccc2)c(C)c1 | inconclusive: 15.8 µM [inhibitor, single point] | – | – |
| CC1=C[C@@H](CN(CC2CC2)CC2CC2)[C@H](C(C)C)C[C@H]1Cc1nc2c(C)cccc2[nH]1 | active: 7.08 µM | – | – |
| Cc1ccc(C2Cn3nnc(C(=O)NC4CCCCCC4)c3CO2)cc1 (centres undefined) | inconclusive: 17.8 µM [inhibitor, single point] | – | – |
| COC(=O)c1c(NC(=O)c2ccc(S(=O)(=O)N(C)C3CCCCC3)cc2)sc2c1CCN(C)C2 | active: 8.91 µM | – | – |
| CCOC(=O)C(Cc1ccccc1)NC(=O)CCc1c(C)nc2c(c(C)nn2-c2ccc(C)c(C)c2)c1C (centres undefined) | inconclusive: 1.41 µM [inhibitor, partial curve, poor fit] | – | – |
| COC(=O)c1ccccc1NC(=O)C1CCCN(c2nnc(C)c3c(C)n(-c4ccccc4)nc23)C1 (centres undefined) | – | inconclusive: -53.3% [inhibitor] [at 5.79 µM] | – |
| Cc1nc2scc(CC(=O)NC(C)C(C)C)n2c(=O)c1-c1cc(C)n(-c2ccccc2F)n1 (centres undefined) | inactive | – | – |
| Cc1ccc(CNC(=O)CN2C(=O)C3(SCC(=O)N3c3ccc(F)c(F)c3)c3ccccc32)cc1 (centres undefined) | inconclusive: 10 µM [inhibitor, partial curve, poor fit] | – | – |
| CCn1nccc1C(=O)Nc1ccc(-c2nnc3n2CCCC3)cc1 | inconclusive: 22.4 µM [inhibitor, partial curve, poor fit] | – | – |
| COc1ccc(-c2nc(Cn3c(SCc4ccccc4F)nc4cccnc43)c(C)o2)cc1 | inconclusive: 11.2 µM [inhibitor, single point] | – | – |
| CC1CCN(c2nc3ccc(C(=O)NCCc4ccc(S(N)(=O)=O)cc4)cc3s2)CC1 | inactive | – | – |
| O=C1NC(=NC2CCCC2)C2(CCCN(Cc3ccccc3)C2)N1c1cc(F)cc(F)c1 (centres undefined) | inactive | – | – |
| O=C(Cn1c(=O)oc2cc(S(=O)(=O)N3CCCCC3)ccc21)NCc1ccc(F)cc1 | inconclusive: 7.94 µM [inhibitor, partial curve, poor fit] | – | – |
| CN(C)C(=O)N1CCC2(CC1)CN(C(=O)CCCNC(N)=O)Cc1ccccc1O2 | inactive | – | – |
| CS(=O)(=O)N1CCC2(CC1)CC(CC(=O)O)CCO2 (centres undefined) | inactive | – | – |
| COc1cccc(CNCCSc2nnnn2-c2ccccc2)c1OC | inconclusive: 7.94 µM [inhibitor, partial curve] | – | – |
| COc1ccc(-c2c(C)c3ccc(O)c(CN4CCCC4)c3oc2=O)cc1 | active: 3.16 µM | – | – |

| Compound | Potency | activity, negative = inhibition | outcome |
| --- | --- | --- | --- |
| Cc1cc(C)cc(C(=O)N2CCCC(n3cc(-c4nc(C)no4)nn3)C2)c1 (centres undefined) | inactive | – | – |
| CCn1c(SCC(=O)c2ccccc2)nnc1-c1cccc(Cl)c1 | inactive | – | – |
| O=C(Cn1c(-c2cccs2)cc2cc(F)ccc21)NCCCN1CCN(c2ccc(F)cc2)CC1 | active: 6.31 µM | – | – |
| COc1ccccc1CC(=O)N1CCCc2ncc(C(=O)NCCc3ccccc3)cc21 | inconclusive: 17.8 µM [inhibitor, partial curve, poor fit] | – | – |
| OC[C@@H]1CNC[C@H]1C1CCN(CC2CCCCC2)CC1 | inactive | – | – |
| Cc1cccc(N2CCN(C(=O)CN3C(=O)COc4ccc(S(=O)(=O)N5CCCC5)cc43)CC2C)c1 (centres undefined) | inconclusive: 10 µM [inhibitor, single point] | – | – |
| Cc1c(Cl)cccc1NC(=O)Nc1ccc2snnc2c1 | inconclusive: 10 µM [inhibitor, single point] | – | – |
| OCC1(Cc2ccc(F)cc2F)CCCN(c2cnc3ccccc3n2)C1 (centres undefined) | inconclusive: 17.8 µM [inhibitor, partial curve, poor fit] | – | – |
| COc1cc(OC)cc(C(=O)N2CCCC(n3cc(-c4nc(-c5ccccc5)no4)nn3)C2)c1 (centres undefined) | inconclusive: 1.41 µM [inhibitor, partial curve, poor fit] | – | – |
| CCN1CCC2(CCC1=O)CN(C(=O)CCc1cccnc1)CCN2C (centres undefined) | inactive | – | – |
| CN(Cc1cccc2cnccc12)C(=O)COc1ccc(Cl)cc1Cl | inconclusive: 10 µM [inhibitor, partial curve, poor fit] | – | – |
| CCOc1ccccc1-c1nc(-c2nnn3c2COC(c2ccc(OC)cc2)C3)no1 (centres undefined) | inactive | – | – |
| COc1ccc(NC(=O)N2CCCC(c3noc(COc4ccccc4F)n3)C2)c(C)c1 (centres undefined) | inconclusive: 17.8 µM [inhibitor, single point] | – | – |
| CCOc1ccccc1C1NC(=O)N(CC(=O)Nc2c(C)cc(C)cc2C)C2=C1C(=O)OC2 (centres undefined) | inconclusive: 11.2 µM [inhibitor, single point] | – | – |
| COCCNC(=O)C(C)[C@@H]1CCc2c(C)cc(OC)c(C)c2C1 (some centres undefined) | inactive | – | – |
| C[C@H]1[C@@H]2[C@@H](O)[C@H]([C@H](C)C(=O)N3CCCC3)CC[C@@]2(C)CC[C@@H]1NC(=O)CC(C)(C)C | inconclusive: 10 µM [inhibitor, partial curve, poor fit] | – | – |
| Cc1ccc(C)c(C(=O)NC2CCN(c3cc(-c4ccc(F)cc4)[nH]n3)C2)c1 (centres undefined) | inconclusive: 6.31 µM [inhibitor, partial curve, poor fit] | – | – |
| CCCN(CC1CCOC1)C(=O)c1ccc(F)c(Cl)c1 (centres undefined) | inconclusive: 1 µM [inhibitor, partial curve] | – | – |
| CCc1ccc(OCC(=O)Nc2ccc3c(c2)c2ccccc2n3CC)c(Br)c1 | inconclusive: 0.158 µM [inhibitor, partial curve, poor fit] | – | – |
| Cc1noc([C@H]2CCN(Cc3cc(F)cc(F)c3)C[C@H]2NC(=O)C2CC2)n1 | – | – | inactive [at 5.79 µM] |
